The list shows a part of the results.
Target: T1, MBP-FoxP1dN (Mus musculus, UniProt P58462 326-579)
T1 sequence: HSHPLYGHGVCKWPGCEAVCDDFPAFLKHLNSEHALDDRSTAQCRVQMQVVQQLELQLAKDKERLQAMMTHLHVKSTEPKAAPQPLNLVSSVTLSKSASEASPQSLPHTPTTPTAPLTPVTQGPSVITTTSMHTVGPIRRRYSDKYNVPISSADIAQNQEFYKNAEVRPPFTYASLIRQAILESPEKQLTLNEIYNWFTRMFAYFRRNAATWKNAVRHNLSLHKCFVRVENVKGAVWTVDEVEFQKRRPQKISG
Assay: PD-seq (MBP pull-down with sequencing); 20 mM Tris-HCl pH 7.5, 100 mM NaCl, 1.5 mM MgCl2, 0.4 uM protein, 0.1 uM dsDNA library, 30 min, room temperature, amylose pull-down; high values mean tight binding
Details: protein: recombinant; tags: His6-MBP; chain copies: 2; dsDNA, one strand shown
How it was run: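 Binding is the reads-per-million enrichment of pull-down relative to input, pooled across replicates. For this, 0.4 µM His6-MBP-tagged mouse FoxP3 or FoxP1 fragment lacking the N-terminus, made in E. coli, was incubated with 0.1 µM Klenow-filled double-stranded degenerate DNA library for 30 min at room temperature in Tris pH 7.5 buffer with NaCl and MgCl2. Complexes bound to amylose resin were washed three times before proteinase K released the DNA for PCR barcoding and Illumina sequencing.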

Row | Sequence | binding signal
1 | GATGATTGTTCTCCCAGCTGATGAATTTCCTTTGTCGAGTAAACAAATTTTCCTAATCTTTCTGTTCAAGCGCCATCTAC | 0.853 RPM ratio (pull-down/input)
2 | GATGATTGTTCTCCCAGCTGATGAATTCATGCGGTCGAGTAAACAAATTTTCCTAATCTTTCTGTTCAAGCGCCATCTAC | 0.86 RPM ratio (pull-down/input)
3 | GATGATTGTTCTCCCAGCTGATGAATTGTACGTCTCGAGTAAACAAATTTTCCTAATCTTTCTGTTCAAGCGCCATCTAC | 0.926 RPM ratio (pull-down/input)
4 | GATGATTGTTCTCCCAGCTGATGAATTTAGCTGGTCGAGTAAACAAATTTTCCTAATCTTTCTGTTCAAGCGCCATCTAC | 0.885 RPM ratio (pull-down/input)
5 | GATGATTGTTCTCCCAGCTGATGAATTTCCCCTTTCGAGTAAACAAATTTTCCTAATCTTTCTGTTCAAGCGCCATCTAC | 0.804 RPM ratio (pull-down/input)
6 | GATGATTGTTCTCCCAGCTGATGAATTTAACGCCTCGAGTAAACAAATTTTCCTAATCTTTCTGTTCAAGCGCCATCTAC | 0.91 RPM ratio (pull-down/input)
7 | GATGATTGTTCTCCCAGCTGATGAATTTGAAACATCGAGTAAACAAATTTTCCTAATCTTTCTGTTCAAGCGCCATCTAC | 1.06 RPM ratio (pull-down/input)
8 | GATGATTGTTCTCCCAGCTGATGAATTCACTAGTTCGAGTAAACAAATTTTCCTAATCTTTCTGTTCAAGCGCCATCTAC | 0.902 RPM ratio (pull-down/input)
9 | GATGATTGTTCTCCCAGCTGATGAATTTCGCAGATCGAGTAAACAAATTTTCCTAATCTTTCTGTTCAAGCGCCATCTAC | 0.774 RPM ratio (pull-down/input)
10 | GATGATTGTTCTCCCAGCTGATGAATTATTCTGATCGAGTAAACAAATTTTCCTAATCTTTCTGTTCAAGCGCCATCTAC | 0.97 RPM ratio (pull-down/input)
11 | GATGATTGTTCTCCCAGCTGATGAATTTTAAGGGTCGAGTAAACAAATTTTCCTAATCTTTCTGTTCAAGCGCCATCTAC | 0.826 RPM ratio (pull-down/input)
12 | GATGATTGTTCTCCCAGCTGATGAATTATATTGGTCGAGTAAACAAATTTTCCTAATCTTTCTGTTCAAGCGCCATCTAC | 1.46 RPM ratio (pull-down/input)
13 | GATGATTGTTCTCCCAGCTGATGAATTTCTACGTTCGAGTAAACAAATTTTCCTAATCTTTCTGTTCAAGCGCCATCTAC | 0.876 RPM ratio (pull-down/input)
14 | GATGATTGTTCTCCCAGCTGATGAATTTGAGAAGTCGAGTAAACAAATTTTCCTAATCTTTCTGTTCAAGCGCCATCTAC | 0.824 RPM ratio (pull-down/input)
15 | GATGATTGTTCTCCCAGCTGATGAATTTGGACCATCGAGTAAACAAATTTTCCTAATCTTTCTGTTCAAGCGCCATCTAC | 0.935 RPM ratio (pull-down/input)
16 | GATGATTGTTCTCCCAGCTGATGAATTGTAGAGTTCGAGTAAACAAATTTTCCTAATCTTTCTGTTCAAGCGCCATCTAC | 0.9 RPM ratio (pull-down/input)

Row | Sequence | binding signal
17 | GATGATTGTTCTCCCAGCTGATGAATTCATAAGATCGAGTAAACAAATTTTCCTAATCTTTCTGTTCAAGCGCCATCTAC | 0.914 RPM ratio (pull-down/input)
18 | GATGATTGTTCTCCCAGCTGATGAATTCACAGTATCGAGTAAACAAATTTTCCTAATCTTTCTGTTCAAGCGCCATCTAC | 0.978 RPM ratio (pull-down/input)
19 | GATGATTGTTCTCCCAGCTGATGAATTATCCCACTCGAGTAAACAAATTTTCCTAATCTTTCTGTTCAAGCGCCATCTAC | 0.896 RPM ratio (pull-down/input)
20 | GATGATTGTTCTCCCAGCTGATGAATTTAGCGTATCGAGTAAACAAATTTTCCTAATCTTTCTGTTCAAGCGCCATCTAC | 1.01 RPM ratio (pull-down/input)
21 | GATGATTGTTCTCCCAGCTGATGAATTGAGCAGTTCGAGTAAACAAATTTTCCTAATCTTTCTGTTCAAGCGCCATCTAC | 0.868 RPM ratio (pull-down/input)
22 | GATGATTGTTCTCCCAGCTGATGAATTTAGCAGGTCGAGTAAACAAATTTTCCTAATCTTTCTGTTCAAGCGCCATCTAC | 0.868 RPM ratio (pull-down/input)
23 | GATGATTGTTCTCCCAGCTGATGAATTTGCCCTATCGAGTAAACAAATTTTCCTAATCTTTCTGTTCAAGCGCCATCTAC | 0.862 RPM ratio (pull-down/input)
24 | GATGATTGTTCTCCCAGCTGATGAATTTTCGATGTCGAGTAAACAAATTTTCCTAATCTTTCTGTTCAAGCGCCATCTAC | 0.913 RPM ratio (pull-down/input)
25 | GATGATTGTTCTCCCAGCTGATGAATTTGCCCCCTCGAGTAAACAAATTTTCCTAATCTTTCTGTTCAAGCGCCATCTAC | 0.853 RPM ratio (pull-down/input)
26 | GATGATTGTTCTCCCAGCTGATGAATTTGTGCTGTCGAGTAAACAAATTTTCCTAATCTTTCTGTTCAAGCGCCATCTAC | 1.31 RPM ratio (pull-down/input)
27 | GATGATTGTTCTCCCAGCTGATGAATTCCAGGCGTCGAGTAAACAAATTTTCCTAATCTTTCTGTTCAAGCGCCATCTAC | 0.804 RPM ratio (pull-down/input)
28 | GATGATTGTTCTCCCAGCTGATGAATTGTCGGGTTCGAGTAAACAAATTTTCCTAATCTTTCTGTTCAAGCGCCATCTAC | 0.911 RPM ratio (pull-down/input)
29 | GATGATTGTTCTCCCAGCTGATGAATTCGTATTCTCGAGTAAACAAATTTTCCTAATCTTTCTGTTCAAGCGCCATCTAC | 0.861 RPM ratio (pull-down/input)
30 | GATGATTGTTCTCCCAGCTGATGAATTCTTGTAATCGAGTAAACAAATTTTCCTAATCTTTCTGTTCAAGCGCCATCTAC | 1.41 RPM ratio (pull-down/input)
31 | GATGATTGTTCTCCCAGCTGATGAATTAGGAGAGTCGAGTAAACAAATTTTCCTAATCTTTCTGTTCAAGCGCCATCTAC | 0.855 RPM ratio (pull-down/input)

— article PMC12820563, “FoxP3 forms a head-to-head dimer in vivo and stabilizes its multimerization on adjacent microsatellites”
